Assay results reported in PMC4336329 (PLoS ONE, 2015).
The whole screen tested about 310,000 compounds, of which about 2,200 (0.71%) showed an effect of 50% or more. The effect is printed as a negative number. The list shows a part of the results.

These molecules were tested against human ether-à-go-go-related gene (hERG) potassium channel (human, UniProt Q12809) (assay: primary screen, population patch clamp on CHO cells stably expressing hERG).
Sequence of human ether-à-go-go-related gene (hERG) potassium channel (Q12809 whole entry, looked up): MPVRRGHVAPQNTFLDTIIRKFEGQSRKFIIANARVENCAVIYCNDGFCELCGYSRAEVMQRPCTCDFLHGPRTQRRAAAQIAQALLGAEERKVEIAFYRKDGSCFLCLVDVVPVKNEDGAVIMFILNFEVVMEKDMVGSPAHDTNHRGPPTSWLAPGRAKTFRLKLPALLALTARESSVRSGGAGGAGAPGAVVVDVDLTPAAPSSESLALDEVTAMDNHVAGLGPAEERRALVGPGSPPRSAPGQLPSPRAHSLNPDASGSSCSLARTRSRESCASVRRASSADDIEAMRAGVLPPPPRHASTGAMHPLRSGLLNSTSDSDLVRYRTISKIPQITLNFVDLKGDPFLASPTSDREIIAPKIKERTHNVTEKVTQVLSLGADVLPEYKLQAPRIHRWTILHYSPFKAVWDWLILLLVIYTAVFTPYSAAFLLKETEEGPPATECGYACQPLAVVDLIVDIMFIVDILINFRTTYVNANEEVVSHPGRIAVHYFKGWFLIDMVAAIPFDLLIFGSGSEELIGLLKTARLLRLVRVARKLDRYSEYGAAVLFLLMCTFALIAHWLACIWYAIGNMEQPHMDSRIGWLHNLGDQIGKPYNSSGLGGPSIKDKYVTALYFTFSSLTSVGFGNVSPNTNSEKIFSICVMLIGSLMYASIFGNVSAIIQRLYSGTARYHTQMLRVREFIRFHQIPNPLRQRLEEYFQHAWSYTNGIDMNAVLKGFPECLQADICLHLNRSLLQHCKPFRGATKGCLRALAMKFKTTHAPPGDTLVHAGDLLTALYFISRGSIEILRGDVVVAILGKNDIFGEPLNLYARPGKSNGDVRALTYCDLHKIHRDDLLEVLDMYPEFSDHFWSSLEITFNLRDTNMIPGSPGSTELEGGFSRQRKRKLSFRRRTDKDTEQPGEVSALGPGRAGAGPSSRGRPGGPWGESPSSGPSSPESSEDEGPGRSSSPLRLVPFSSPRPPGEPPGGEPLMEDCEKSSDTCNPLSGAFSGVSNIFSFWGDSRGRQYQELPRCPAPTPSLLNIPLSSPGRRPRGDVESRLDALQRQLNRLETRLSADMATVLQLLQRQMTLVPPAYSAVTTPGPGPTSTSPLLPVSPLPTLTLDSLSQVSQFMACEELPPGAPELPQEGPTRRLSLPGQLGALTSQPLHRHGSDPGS
With CC1=CC(C)C2C(=O)N(CCCN(C)C)C(=O)C2C1 (stereo not shown) the “hERG current change (%, negative = inhibition) at 1uM” value was -2.52%.
With COc1ccc(NC(=O)C2CCN(S(=O)(=O)c3cccnc3)CC2)cc1Cl the “hERG current change (%, negative = inhibition) at 1uM” value was 12%.
In the case of CCCCC(=O)Nc1cccc(-c2nc3ncccc3o2)c1C, the “hERG current change (%, negative = inhibition) at 1uM” value is reported as 7.41%.
Cc1ccc(N2C(=O)CSC2c2cccnc2)c(Cl)c1 (stereo not shown) was tested, and the “hERG current change (%, negative = inhibition) at 1uM” value was 11.7%.
In the case of CCc1cccc(NC(=O)CN(c2ccc(OC)cc2)S(=O)(=O)c2c(C)n[nH]c2C)c1, the “hERG current change (%, negative = inhibition) at 1uM” value is reported as 9.95%.
COCCNC(=O)/C(C#N)=C/c1c(N2CCN(C)CC2)nc2c(C)cccn2c1=O was tested, and the “hERG current change (%, negative = inhibition) at 1uM” value was 9.36%.
For CCOC(=O)c1oc2ccccc2c1CN1CCN(C(=O)c2ccccc2)CC1, the “hERG current change (%, negative = inhibition) at 1uM” value was -6.43%.
With COc1ccc(-n2nnnc2SCC(=O)c2cccc(OC)c2)cc1 the “hERG current change (%, negative = inhibition) at 1uM” value was 11.6%.
COCCNC(=O)C(C)OC(=O)C1=Cc2ccccc2OC1 (stereo not shown) was tested, and the “hERG current change (%, negative = inhibition) at 1uM” value was 8.02%.
For CC1(C)CC(=O)C(C(=S)Nc2ccccc2)=C(NC2CC(C)(C)NC(C)(C)C2)C1, the “hERG current change (%, negative = inhibition) at 1uM” value was 10.3%.
O=C1c2ccccc2C(=O)N1CC(O)CN1CCOCC1 (stereo not shown) was tested, and the “hERG current change (%, negative = inhibition) at 1uM” value was 8.71%.
O=C(c1cccc(C(F)(F)F)c1)N1C[C@H]2C[C@@H](C1)c1cccc(=O)n1C2 was tested, and the “hERG current change (%, negative = inhibition) at 1uM” value was -4.53%.
With CCOC(=O)c1ccccc1NC(=O)CSc1nc(N)cc(N)n1 the “hERG current change (%, negative = inhibition) at 1uM” value was 7.47%.
In the case of CC1CC(C)CN(S(=O)(=O)CCNC(=O)c2ccc3c(c2)OCO3)C1 (stereo not shown), the “hERG current change (%, negative = inhibition) at 1uM” value is reported as 10.8%.
In the case of Cc1ccc(-n2ncc(C(=O)NCC3CCN(C4CCCC4)C3)c2C2CCN(C(=O)OC(C)(C)C)CC2)cc1 (stereo not shown), the “hERG current change (%, negative = inhibition) at 1uM” value is reported as 0.717%.
CCN(CC(=O)Nc1c(F)cccc1F)C(=O)CCc1c[nH]c2ccccc12 was tested, and the “hERG current change (%, negative = inhibition) at 1uM” value was 9.18%.
For CCCCCCn1c(CN2CCC(C)CC2)nc2c1c(=O)n(C)c(=O)n2C, the “hERG current change (%, negative = inhibition) at 1uM” value was 5.88%.
For COC(=O)c1ccccc1NC(=O)c1ccccc1OC, the “hERG current change (%, negative = inhibition) at 1uM” value was 2.47%.
For O=C(CCC(=O)Nc1nnc(C2CCCCC2)s1)Nc1ccc(F)cc1, the “hERG current change (%, negative = inhibition) at 1uM” value was 9.51%.
With O=C(Nc1ccc(Br)cc1)NC1CCCCCCC1 the “hERG current change (%, negative = inhibition) at 1uM” value was 9.2%.
In the case of CCCC(C)NC(=O)COC(=O)c1ccccc1SCC(=O)NC(C)CCC (stereo not shown), the “hERG current change (%, negative = inhibition) at 1uM” value is reported as -3.9%.
With Cc1ccc[n+](CC(=O)Nc2cc(C(F)(F)F)ccc2Cl)c1.[Cl-] the “hERG current change (%, negative = inhibition) at 1uM” value was 12.6%.
With COc1ccccc1-c1sc2cc3c(cc2c1C#CCO)OCO3 the “hERG current change (%, negative = inhibition) at 1uM” value was 19%.
In the case of Cc1ccccc1OCC(=O)NNC(=O)c1ccc(-c2ccccc2)cc1, the “hERG current change (%, negative = inhibition) at 1uM” value is reported as 0.401%.
In the case of CCOC(=O)c1cnc(-c2ccccc2)nc1Oc1ccc(Cl)cc1, the “hERG current change (%, negative = inhibition) at 1uM” value is reported as 6.28%.
With CCOc1ccc(S(=O)(=O)Nc2ccc(S(=O)(=O)N3CCCCC3)cc2)cc1 the “hERG current change (%, negative = inhibition) at 1uM” value was 6.8%.
For CCN(CC(=O)Nc1ccc(NC(C)=O)cc1)C(=O)C1CCCN(C(=O)c2ccc(Cl)cc2)C1 (stereo not shown), the “hERG current change (%, negative = inhibition) at 1uM” value was 6.53%.
With O=C(Nc1cccc(NC(=O)c2cccc([N+](=O)[O-])c2)n1)c1cccc([N+](=O)[O-])c1 the “hERG current change (%, negative = inhibition) at 1uM” value was 11.5%.
With CC1(C)CC(CCN)(Cc2ccccc2Cl)CCO1 (stereo not shown) the “hERG current change (%, negative = inhibition) at 1uM” value was 15.4%.
Cc1ccc(NC(=O)CCC(=O)N/N=C/c2ccccc2O)cc1 was tested, and the “hERG current change (%, negative = inhibition) at 1uM” value was 9.34%.
In the case of COc1ccc(Cc2c(O)nc(SC)n(C(C)=O)c2=O)cc1, the “hERG current change (%, negative = inhibition) at 1uM” value is reported as -0.319%.
Clc1cccc(Cc2ccc(Cl)nn2)c1 was tested, and the “hERG current change (%, negative = inhibition) at 1uM” value was 4.52%.
For C=CCN(C(=O)c1csnn1)C(C(=O)NCc1ccccc1)c1ccccc1F (stereo not shown), the “hERG current change (%, negative = inhibition) at 1uM” value was 8.54%.
For O=S(=O)(c1ccc2oc(=S)[nH]c2c1)N1CCCCC1, the “hERG current change (%, negative = inhibition) at 1uM” value was 16.8%.
In the case of CC(=O)c1ccccc1NS(=O)(=O)c1ccc2c(c1)CC(=O)N2, the “hERG current change (%, negative = inhibition) at 1uM” value is reported as 9.36%.
CC(C(=O)Nc1ccc(C#N)cc1)N1CCN(C(=O)C2CC2)CC1 (stereo not shown) was tested, and the “hERG current change (%, negative = inhibition) at 1uM” value was -14.4%.
With CCCCCC(=O)N1CC2(CC)CN(C(=O)CCCCC)CC(CC)(C1)C2=O the “hERG current change (%, negative = inhibition) at 1uM” value was 0.984%.
In the case of O=S(=O)(Nc1cc(Cl)ccc1-n1cncn1)c1cc(Br)ccc1Br, the “hERG current change (%, negative = inhibition) at 1uM” value is reported as 6.48%.
In the case of CC(C)(C)C(=O)Nc1nc2c(c(=O)[nH]1)CCCC2, the “hERG current change (%, negative = inhibition) at 1uM” value is reported as 9.41%.
With CCc1ccc2c(c1)C(c1ccc([N+](=O)[O-])cc1)=NNC(c1ccc(F)cc1)=N2 the “hERG current change (%, negative = inhibition) at 1uM” value was -2.97%.
For Cc1cc(C)nc(/N=C(\N)C2=C(O)CC(C)(C)CC2=O)n1, the “hERG current change (%, negative = inhibition) at 1uM” value was 10.2%.
For COc1cc(C#N)c(NC(=O)CN2CCN(CCO)CC2)cc1OC, the “hERG current change (%, negative = inhibition) at 1uM” value was 0.101%.
COc1ccccc1Oc1nc2c(c(=O)n(Cc3ccccc3F)c(=O)n2C)n1C was tested, and the “hERG current change (%, negative = inhibition) at 1uM” value was 11.8%.
CCOc1ccc(C(=O)Nc2ccc3c(c2)OCO3)cc1OCC was tested, and the “hERG current change (%, negative = inhibition) at 1uM” value was 10.4%.
O=c1c2c(nc3c(-c4ccccc4)c[nH]n13)CCCC2 was tested, and the “hERG current change (%, negative = inhibition) at 1uM” value was -4.25%.
With COc1cc(OC)cc(C(=O)NCC(=O)OCC(=O)Nc2ncc(Cl)cc2Cl)c1 the “hERG current change (%, negative = inhibition) at 1uM” value was 6.01%.
For COc1cccc(CNC(=O)C2Cc3ccccc3CN2C(C)=O)c1 (stereo not shown), the “hERG current change (%, negative = inhibition) at 1uM” value was 8.98%.
With CCC/C(=N\NC(=O)c1csc(C)c1C)c1cccs1 the “hERG current change (%, negative = inhibition) at 1uM” value was 2.45%.
For O=P(Cc1cc(Br)cc(Br)c1OCCO)(c1ccccc1)c1ccccc1, the “hERG current change (%, negative = inhibition) at 1uM” value was 7.44%.
Cc1ccc(S(=O)(=O)NC(=O)NC(C)c2ccc(F)cc2)cc1 (stereo not shown) was tested, and the “hERG current change (%, negative = inhibition) at 1uM” value was 17.9%.
In the case of CCN1C(=O)[C@H]2[C@@H](c3ccc(-c4cccc(Cl)c4)cc3)N3CCCC[C@@]3(C(=O)OC)[C@H]2C1=O.O=C(O)C(F)(F)F, the “hERG current change (%, negative = inhibition) at 1uM” value is reported as 5.31%.
C[C@@H]1CC[C@@]2(NC1)O[C@H]1C[C@H]3[C@@H]4CC=C5C[C@@H](O)CC[C@]5(C)[C@H]4CC[C@]3(C)[C@H]1[C@@H]2C was tested, and the “hERG current change (%, negative = inhibition) at 1uM” value was 18.1%.
In the case of CC1CCCCN1C(=O)CCc1nnc(Cc2c[nH]c3ccccc23)o1 (stereo not shown), the “hERG current change (%, negative = inhibition) at 1uM” value is reported as 8.2%.
In the case of CCOc1ccc(C(C(=O)NC2CCCCC2)N(C(=O)c2ccccn2)c2cccnc2)cc1 (stereo not shown), the “hERG current change (%, negative = inhibition) at 1uM” value is reported as -0.986%.
CC(=O)NS(=O)(=O)c1ccc(NC(=S)NC(=O)COc2ccccc2C)cc1 was tested, and the “hERG current change (%, negative = inhibition) at 1uM” value was 7.43%.
